# Measurements as given in the supplement of paper PMC3334620.
# Over roughly 33,000 sequences, “E-score (-0.5 to 0.5)” has its median near -0.035; the highest 2% begin near 0.35. This is one part of the list.
# Target: T1, Pdr3 (UniProt P33200)
# T1 sequence: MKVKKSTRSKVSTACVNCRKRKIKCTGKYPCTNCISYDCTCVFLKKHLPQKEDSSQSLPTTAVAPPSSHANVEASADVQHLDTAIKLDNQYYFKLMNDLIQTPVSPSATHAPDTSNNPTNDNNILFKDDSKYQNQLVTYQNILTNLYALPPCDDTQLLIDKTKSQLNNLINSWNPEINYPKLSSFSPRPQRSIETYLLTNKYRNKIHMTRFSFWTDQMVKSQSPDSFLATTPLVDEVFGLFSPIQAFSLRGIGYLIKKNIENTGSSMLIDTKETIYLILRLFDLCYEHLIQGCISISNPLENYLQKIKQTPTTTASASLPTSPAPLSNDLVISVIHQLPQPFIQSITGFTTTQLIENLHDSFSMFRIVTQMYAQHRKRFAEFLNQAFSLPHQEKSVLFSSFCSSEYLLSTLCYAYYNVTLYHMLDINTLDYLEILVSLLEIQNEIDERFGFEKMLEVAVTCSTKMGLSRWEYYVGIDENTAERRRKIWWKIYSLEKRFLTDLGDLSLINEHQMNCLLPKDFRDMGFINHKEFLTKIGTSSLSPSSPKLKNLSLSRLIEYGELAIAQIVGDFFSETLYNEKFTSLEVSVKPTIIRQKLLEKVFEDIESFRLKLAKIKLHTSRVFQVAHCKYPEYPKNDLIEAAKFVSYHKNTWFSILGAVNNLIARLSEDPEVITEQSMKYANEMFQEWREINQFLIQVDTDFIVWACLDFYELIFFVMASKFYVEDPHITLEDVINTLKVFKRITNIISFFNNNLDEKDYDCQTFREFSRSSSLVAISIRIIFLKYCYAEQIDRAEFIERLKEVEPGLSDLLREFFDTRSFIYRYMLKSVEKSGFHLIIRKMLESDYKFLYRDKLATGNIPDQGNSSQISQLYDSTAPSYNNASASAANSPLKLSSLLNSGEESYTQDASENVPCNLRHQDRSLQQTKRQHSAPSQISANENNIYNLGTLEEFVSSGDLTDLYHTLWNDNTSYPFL
# Test: PBM E-score (8-mer binding enrichment) (E-score (-0.5 to 0.5)); higher = stronger / more preferred TF binding; most listed sequences are background and not binding sites
# Settings: protein concentration: 200 nM; construct: GST-full length
# In short: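 Masliner-normalised scans of fluorescent anti-GST signal were the basis for scoring. That signal came from GST-tagged yeast transcription factors applied at about 100-200 nM to double-stranded universal all-10-mer Agilent arrays on fresh or once-stripped slides. Each ungapped eight-base word, pooled with its reverse complement, received an E-score from the Universal PBM Analysis Suite.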
row,Sequence,PBM E-score
1,ACGGCCAA,0.158
2,CGTCTCGC,-0.119
3,AGCAACTC,-0.0636
4,AATCTGAA,-0.0156
5,AATCTAGC,-0.288
6,GCATCAGC,0.0573
7,TAGCATCA,-0.0373
8,TCCCAAAA,-0.0463
9,CTCCGTTC,0.367
10,CACAGACC,0.151
11,CGACCACC,0.0539
12,GATGTTTA,0.0962
13,ATAATAGA,-0.0653
14,CCACCACC,-0.0836
15,AATTGAAT,-0.0365
16,CTACCACC,-0.187
17,GTGACCCA,-0.14
18,CGTGCACG,-0.00114
19,AATAACGA,-0.0186
20,CGATACCC,-0.00232
21,AGTGTTCG,-0.0373
22,AGACAGGC,-0.0117

row,Sequence,PBM E-score
1,AAGGTCCT,-0.22
2,ATACACGA,-0.0447
3,CATACATA,0.0249
4,AATCGAGT,0.00341
5,ATGTTAAA,-0.0642
6,CATTGCCC,-0.00477
7,ACGGATGG,0.289
8,ACGAGGGC,-0.0865
9,GCCTCATA,0.0142
10,AGTAATCC,0.00373
11,AGGGCGAG,-0.129
12,GAAGAGTC,-0.16
13,CCCTGATA,-0.251
14,CGGTAAAG,0.122
15,CTGGACCC,-0.078
16,ACGATCTA,-0.265
17,ACTCAAGC,-0.00858
18,GATCGCAC,-0.0775
19,ACTGGTCG,-0.0903
20,GACAGCAA,-0.044
21,AATGAGCT,0.00441
22,ATCGCAAC,-0.0656

row,Sequence,PBM E-score
1,AATATGCA,-0.0816
2,ATCAGACC,0.0876
3,GATGTAGC,-0.192
4,GGAAGTCC,0.237
5,CTGATTCA,-0.106
6,CAGTTGGA,-0.0903
7,GACTATCA,-0.205
8,ATCAAAAC,-0.0437
9,CGTCGATA,0.154
10,AAAGGCTC,-0.22
11,ACCTCTTA,0.213
12,TCTCACAA,0.0933
13,AACTAAAC,-0.0394
14,CGCCGGAG,0.299
15,ATCTAAAT,0.126
16,CTTCGGTC,0.065
17,CTTTCGCA,-0.0763
18,CACGAGGC,-0.0528
19,CGGCAAAA,0.0451
20,CGGTCGTA,0.0889
21,GCAAAAGC,-0.174
22,GGGGTCCA,-0.138

row,Sequence,PBM E-score
1,ACGAGGCA,-0.211
2,CAAGGTAG,-0.0759
3,GCCATCGA,0.125
4,CAGGAGGC,-0.045
5,ACTCCTTG,-0.0261
6,ACGCTACC,-0.183
7,AAATACGA,-0.0616
8,ATTTTATC,-0.0377
9,AGAGGCCC,-0.0473
10,AGCGATTC,-0.0275
11,GCCAACCC,-0.0135
12,GAGGTTAA,-0.0985
13,ATCGTGAC,0.0473
14,CAATTACC,-0.0711
15,ATTCTCGA,-0.0715
16,GCTTAGTA,-0.211
17,CCATAGTA,0.107
18,AGTGAACG,-0.0964
19,CTGCTACC,-0.226
20,GCTGTTAA,-0.185
